Source: PubChem BioAssay AID924 (National Center for Advancing Translational Sciences (NCATS), 2007)
Several values for one entry are separate records, joined by “and”; a condition that tells them apart may be missing. Equal entries are not always repeated. About 1,200 (0.92%) of roughly 130,000 compounds were called active. The shares of active, inactive and inconclusive entries below differ from those in the screen. Calls come from the whole dose curve; as a rule, active = well fitted cell-killing curve with a large enough effect; inconclusive = small, poorly fitted or top-dose-only effect; inactive = no such curve, though single readings can be large or run the other way. A potency beside an inconclusive call is a rough fit, not a confirmed value. The source holds several records for some structures; these can differ, active in one and inactive in another.

Test: qHTS Screen for Compounds that Selectively Target Cancer Cells with p53 Mutations: Cytotoxicity of p53ts Cells at the Permissive Temperature; note: nearly all actives have a fitted effect of over 55% in size;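 for activity change, negative = cytotoxicity: 0% = DMSO and -100% = full killing by reference compound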
Details: H1299-p53A138V at 32C, ATP luminescence viability, 24 h; activity change, negative = cytotoxicity: at 46.1 µM (top of the series)
Summary of the method: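 Viability by ATPlite luminescence after 24 h compound treatment (up to 46 uM) at the permissive 32C. Cells are H1299 carrying p53 A138V. Scale runs from DMSO basal to 100 uM tamoxifen as full kill; AC50 from Hill fits.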
Potency is the fitted concentration of half-maximal effect; tags give direction and shape of the fitted curve.

| SMILES | Potency | activity change, negative = cytotoxicity |
| --- | --- | --- |
| COc1cccc(C(=O)Nc2cccc(OC(C)=O)c2)c1 | inconclusive: 12.6 µM [cytotoxic, single point] | – |
| CCCn1c(/C=C/c2ccccc2)nc2ccccc21 | active: 12.6 µM | – |
| Cc1ccc(NC(=O)C(=O)NCC(c2cccnc2)N2CCN(C)CC2)cc1 (stereo unspecified) | inconclusive: 31.6 µM [cytotoxic, single point] | – |
| COc1ccc(OC)c(NC(=O)C2CCCN2C(=O)OCc2ccccc2)c1 (stereo unspecified) | inconclusive: 0.0398 µM [cytotoxic, full curve, poor fit] | – |
| COCc1ccc2oc(C(=O)O)cc2c1 | inconclusive: 6.31 µM [cytotoxic, partial curve] | – |
| Cc1ccc(CNC(=O)c2c(-c3ccc(Br)cc3)noc2C)o1 | inactive | – |
| COc1cc(C(=O)NCC(c2cccnc2)N2CCN(c3ccc(F)cc3)CC2)cc(OC)c1OC (stereo unspecified) | inconclusive: 31.6 µM [cytotoxic, single point] | – |
| Cc1ccc(-c2noc(CN(C3CCCCC3)S(=O)(=O)c3ccc(C)cc3)n2)cc1 | inactive | – |
| COc1ccc(-c2cc3nc(C4CCN(C(=O)OC(C)(C)C)CC4)c(C(=O)Nc4cc(Cl)cc(Cl)c4)cn3n2)cc1 | inactive | – |
| O=c1n(-c2ccccc2)c(=O)n2n1CC[C@H]1/C(=N\OC[C@@H](O)COCc3ccco3)[C@H]3O[C@@H]3[C@@H](O)[C@@H]12 | – | inactive: 2.66% [at 9.22 µM] and inactive: 7.4% [at 9.22 µM] |
| COc1ccc(C(=O)Nc2ccc3c(c2)OCO3)cc1OC | inconclusive: 15.8 µM [cytotoxic, partial curve] | – |
| Cc1nn(-c2ccccc2)c(Cl)c1C(=O)N1CCN(c2ncnc3c2cnn3-c2ccccc2)CC1 | active: 10 µM | – |
| CCN(CC)C(=O)CSc1nc2cc3c(cc2c(=O)n1Cc1ccc(C(=O)NCCc2ccc(OC)c(OC)c2)cc1)OCO3 | inactive | – |
| CCC(=O)Oc1ccc(-c2nc(-c3cccnc3)no2)cc1 | inconclusive: 12.6 µM [cytotoxic, single point] | – |
| COc1ccc(/C=C/C(=O)c2ccc(C)s2)cc1 | active: 31.6 µM | – |
| Cc1nc2sc(C(=O)NCc3ccc(Cl)cc3)c(NC(=O)c3ccccc3)c2c(C)c1C | inconclusive: 31.6 µM [cytotoxic, single point] | – |
| Cc1ccc(C(=O)c2coc3ccc(OCC(=O)O)cc23)cc1 | inconclusive: 10 µM [cytotoxic, partial curve] | – |
| Cc1ccc(-c2cc(C(=O)N/N=C/c3c[nH]c4ccccc34)n[nH]2)o1 | inconclusive: 11.2 µM [cytotoxic, partial curve] | – |
| O=C(NNc1ncnc2c1cnn2-c1ccccc1)c1cccc(Cl)c1 | inconclusive: 12.6 µM [cytotoxic, single point] | – |
| CCN(CC)CCCC(C)Nc1c2ccc(Cl)cc2nc2ccc(OC)cc12 (stereo unspecified) | active: 5.01 µM | – |
| CCOC(=O)c1ccc(NC(=O)CCCc2nc(-c3ccccc3Cl)no2)cc1 | inactive | – |
| CCOC(=O)N1CCc2c(sc(NC(=O)c3ccc(S(=O)(=O)N4CCCC4)cc3)c2C#N)C1 | inconclusive: 1.41 µM [cytotoxic, full curve] | – |
| Cc1cc(C)cc(C(=O)Nc2ccc(-c3nc4ncccc4o3)cc2)c1 | inactive | – |
| Cc1ccc(O)c(C(CC(=O)NCC2(c3ccccc3)CCCC2)c2ccccc2)c1 (stereo unspecified) | inconclusive: 31.6 µM [cytotoxic, single point] | – |

| SMILES | Potency | activity change, negative = cytotoxicity |
| --- | --- | --- |
| O=C(c1cc(-c2ccc(Cl)cc2Cl)on1)N1CCOCC1 | active: 3.16 µM | – |
| O=C(CN1C(=O)CCS(=O)(=O)c2ccccc21)NCc1ccccc1 | inactive | – |
| O=C1NCCCC1C(=O)N/N=C/c1ccccc1O (stereo unspecified) | inactive | – |
| O=C(O)c1cccc(COc2ccccc2Cl)c1 | active: 10 µM | – |
| O=C(COC(=O)/C=C/c1cccc(Cl)c1)NCCC1=CCCCC1 | inactive | – |
| COc1ccc(S(=O)(=O)N2CCN(c3ccccc3F)CC2)cc1-c1noc(C)n1 | inconclusive: 31.6 µM [cytotoxic, single point] | – |
| Cn1cc(Cl)c(-c2nc3ccccc3[nH]2)n1 | inconclusive: 12.6 µM [cytotoxic, partial curve] | – |
| Cc1ccc(-c2cc(C(=O)NCc3cnn(C)c3C)c3cc(Br)ccc3n2)cc1 | inconclusive: 12.6 µM [cytotoxic, partial curve] | – |
| COc1cc(C(=O)Nc2nc(-c3cccs3)cs2)cc(OC)c1OC | inconclusive: 25.1 µM [cytotoxic, single point] | – |
| CCn1cc(SCC(=O)NCc2ccc3c(c2)OCO3)c2ccccc21 | active: 5.01 µM | – |
| CCCOC(=O)c1ccc(Oc2cn[nH]c2-c2ccc(OCC)cc2O)cc1 | inconclusive: 31.6 µM [cytotoxic, single point] | – |
| Cc1cc(C(C)(C)CC(C)(C)C)ccc1OCCOCC[N+](C)(C)Cc1ccccc1 | active: 25.1 µM | – |
| Cc1nc(NCCN2CCOCC2)c2oc3ccccc3c2n1 | inconclusive: 12.6 µM [cytotoxic, partial curve] | – |
| CCCCc1ccc(Nc2nc(CCC)cc(=O)[nH]2)cc1 | inconclusive: 31.6 µM [cytotoxic, single point] | – |
| Fc1cccc(CSc2nc3ccncc3[nH]2)c1 | active: 5.01 µM | – |
| COc1ccc(OC)c(CCNC(=O)c2csc3c2CCCCC3)c1 | inconclusive: 10 µM [cytotoxic, partial curve] | – |
| CN(C)c1ncc2nc(-c3cc(F)cc(F)c3)c(=O)n(Cc3ccc(F)cc3)c2n1 | inactive | – |
| Cc1ccc(C(=O)c2cnc3cc4c(cc3c2S(=O)(=O)c2ccccc2)OCCO4)cc1 | inconclusive: 17.8 µM [cytotoxic, single point] | – |
| CC(=O)c1cccc(NC(=O)Nc2ccc3c(c2)N(C)C(=O)CS3)c1 | inconclusive: 31.6 µM [cytotoxic, single point] | – |
| CC(=O)Nc1ccc(-c2cn3ccsc3n2)cc1 | active: 10 µM | – |
| CN(C)c1ccc(-c2nc(-n3ccnc3)c3ccccc3n2)cc1 | active: 10 µM | – |
| CC(C)[C@@H]1[C@H]2CC[C@H](C2)[C@H]1N | inactive | – |
| CN(C)c1nc(N)c(C(=O)Nc2cccnc2)nc1Cl | active: 12.6 µM | – |
| NC(=NCc1ccc(Cl)c(Cl)c1)NC(=O)c1nc(Cl)c(N)nc1N | active: 12.6 µM | – |

| SMILES | Potency | activity change, negative = cytotoxicity |
| --- | --- | --- |
| c1ccc(-c2csc(-c3nc4ccccc4[nH]3)n2)cc1 | active: 7.94 µM | – |
| CC(=O)Nc1nonc1-c1nnc(SCC(=O)Nc2cc(C)cc(C)c2)n1-c1ccccc1 | inconclusive: 15.8 µM [cytotoxic, single point] | – |
| O=C(COC(=O)[C@H](Cc1ccccc1)NC(=O)c1cccs1)Nc1c(Cl)cccc1Cl | inconclusive: 0.158 µM [cytotoxic, full curve, poor fit] | – |
| O=C(COc1ccccc1C(=O)c1cnn(-c2ccccc2)c1)Nc1ccccc1 | active: 11.2 µM | – |
| Cc1ccc(NC(=O)N2CCC(c3ccccc3)C2)cc1C (stereo unspecified) | inconclusive: 12.6 µM [cytotoxic, partial curve] | – |
| COc1ccc(-c2coc3ccc(OC4OC(COC(C)=O)C(OC(C)=O)C(OC(C)=O)C4OC(C)=O)cc3c2=O)cc1 (stereo unspecified) | inconclusive: 12.6 µM [cytotoxic, partial curve] | – |
| CCCCOc1ccc(C2C(=O)N(C3CCCCC3)CC(=O)N2C2CCCCC2)cc1 (stereo unspecified) | inactive | – |
| O=c1c(O)c(-c2ccccc2)oc2ccccc12 | inconclusive: 15.8 µM [cytotoxic, single point] | – |
| CN(C)CCNC(=O)c1ccc(-n2c(=O)c(=O)[nH]c3ccccc32)cc1 | inactive | – |
| Cc1ccc(OCCSc2nc3ccccc3n2CC(=O)N2CCOCC2)cc1 | inconclusive: 20 µM [cytotoxic, single point] | – |
| CC1=C(C(=O)NCc2cccc(F)c2)C2(CCCCCC2)OC1=O | inactive | – |
| Nc1cc(N)nc(SCCOc2ccccc2F)n1 | inconclusive: 1.78 µM [cytotoxic, partial curve] | – |
| CCOC(=O)CSc1nc2ccc(NC(=O)c3ccc(Cl)cc3)cc2s1 | inconclusive: 15.8 µM [cytotoxic, partial curve] | – |
| Cc1ccc(O)c(NC(=O)CCS(=O)(=O)c2nc(-c3cccs3)cc(C(F)(F)F)n2)c1 | inconclusive: 31.6 µM [cytotoxic, single point] | – |
| Cc1ccc(C(C)C)c(OCC(=O)Nc2cc(-c3nc4ccccc4[nH]3)ccc2C)c1 | inconclusive: 10 µM [cytotoxic, partial curve] | – |
| Cc1cccc(-n2cnc3cc(C(=O)NCc4ccccc4Cl)ccc32)c1 | inconclusive: 25.1 µM [cytotoxic, single point] | – |
| COc1cccc(OCC(O)CN2CCN(CCO)CC2)c1 (stereo unspecified) | inconclusive: 0.316 µM [cytotoxic, full curve, poor fit] | – |
| CCc1ccccc1NC(=O)c1cc(-c2ccc(Cl)s2)nc2ccccc12 | inconclusive: 12.6 µM [cytotoxic, partial curve] | – |
| O=C(Nc1ccccc1F)c1cnc(N2CCCCC2)c2ccccc12 | inconclusive: 5.62 µM [cytotoxic, single point] | – |
| CCOc1ccc2nc(N3CCCC(C(=O)NCCCN4CCOCC4)C3)sc2c1 (stereo unspecified) | active: 10 µM | – |
| Cc1cc(C)c(S(=O)(=O)Nc2ccc(-c3ccc(N4CCCCCC4)nn3)cc2)c(C)c1 | inconclusive: 20 µM [cytotoxic, single point] | – |
| CC(C)c1cccc2c([Si](C)(C)C)c3c(nc12)-c1cccc(=O)n1C3 | inconclusive: 31.6 µM [cytotoxic, single point] | – |
| COc1cc(NC(=O)COCc2cc(-c3ccc4c(c3)OCO4)on2)cc(OC)c1 | inconclusive: 14.1 µM [cytotoxic, partial curve] | – |
